Assay results reported in the supplement of paper PMC8728848.
The list shows a part of the results.

Experiments:
Assay in all cases: glycan array binding signal (z-score within array); higher = stronger binding
Settings in all cases: glycan notation: IUPAC condensed, linker removed
[1] = target: Gal(b1-4)GlcNAc(b1-6)Gal(b1-4)GlcNAc
How it was run: (§1)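 Arrays were curated from the Consortium for Functional Glycomics database, 3228 in total, and kept only where the protein sequence was available. Binding is expressed as a within-array Z-score. This score was averaged across arrays of the same protein sequence at different concentrations or buffers and across linkers, and negative values can be read as non-binding.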

[2] = target: Gal(b1-4)GlcNAc(b1-6)Gal(b1-4)GlcNAc(b1-6)GalNAc
How it was run: as §1

[3] = target: Gal(b1-4)GlcNAc(b1-6)GalNAc
How it was run: as §1

[4] = target: Gal(b1-4)GlcNAc(b1-6)[Gal(b1-3)]GalNAc
How it was run: as §1

Gal3S(b1-3)GalNAc = target: Gal3S(b1-3)GalNAc
How it was run: as §1

Gal3S(b1-3)GlcNAc = target: Gal3S(b1-3)GlcNAc
How it was run: as §1

[5] = target: Gal3S(b1-3)[Fuc(a1-4)]GlcNAc
How it was run: as §1

Gal3S(b1-4)Glc = target: Gal3S(b1-4)Glc
How it was run: as §1

Gal3S(b1-4)Glc6S = target: Gal3S(b1-4)Glc6S
How it was run: as §1

Gal3S(b1-4)GlcNAc = target: Gal3S(b1-4)GlcNAc
How it was run: as §1

Gal3S(b1-4)GlcNAc6S = target: Gal3S(b1-4)GlcNAc6S
How it was run: as §1

[6] = target: Gal3S(b1-4)[Fuc(a1-3)]Glc
How it was run: as §1

Gal3S4S(b1-4)GlcNAc = target: Gal3S4S(b1-4)GlcNAc
How it was run: as §1

Gal3S6S(b1-4)GlcNAc = target: Gal3S6S(b1-4)GlcNAc
How it was run: as §1

Gal3S6S(b1-4)GlcNAc6S = target: Gal3S6S(b1-4)GlcNAc6S
How it was run: as §1

Gal4S(b1-4)GlcNAc = target: Gal4S(b1-4)GlcNAc
How it was run: as §1

Gal4S6S(b1-4)GlcNAc = target: Gal4S6S(b1-4)GlcNAc
How it was run: as §1

Gal6S(b1-4)Glc = target: Gal6S(b1-4)Glc
How it was run: as §1

Gal6S(b1-4)Glc6S = target: Gal6S(b1-4)Glc6S
How it was run: as §1

Gal6S(b1-4)GlcNAc = target: Gal6S(b1-4)GlcNAc
How it was run: as §1

Gal6S(b1-4)GlcNAc6S = target: Gal6S(b1-4)GlcNAc6S
How it was run: as §1

GalNAc(a1-3)Gal = target: GalNAc(a1-3)Gal
How it was run: as §1

GalNAc(a1-3)GalNAc = target: GalNAc(a1-3)GalNAc
How it was run: as §1

GalNAc(b1-3)Gal = target: GalNAc(b1-3)Gal
How it was run: as §1

[7] = target: GalNAc(b1-3)Gal(a1-4)Gal(b1-4)GlcNAc
How it was run: as §1

[8] = target: GalNAc(b1-3)Gal(a1-4)Gal(b1-4)GlcNAc(b1-3)Gal(b1-4)Glc
How it was run: as §1

GalNAc(b1-3)GalNAc = target: GalNAc(b1-3)GalNAc
How it was run: as §1

GalNAc(b1-4)GlcNAc = target: GalNAc(b1-4)GlcNAc
How it was run: as §1

[9] = target: GalNAc(b1-4)GlcNAc(b1-2)Man(a1-3)[GalNAc(b1-4)GlcNAc(b1-2)Man(a1-6)]Man(b1-4)GlcNAc(b1-4)GlcNAc
How it was run: as §1

Glc(a1-4)Glc = target: Glc(a1-4)Glc
How it was run: as §1

Glc(a1-6)Glc(a1-6)Glc = target: Glc(a1-6)Glc(a1-6)Glc
How it was run: as §1

Glc(b1-4)Glc = target: Glc(b1-4)Glc
How it was run: as §1

Glc(b1-6)Glc = target: Glc(b1-6)Glc
How it was run: as §1

GlcA(b1-3)Gal = target: GlcA(b1-3)Gal
How it was run: as §1

GlcA(b1-3)GlcNAc = target: GlcA(b1-3)GlcNAc
How it was run: as §1

GlcA(b1-6)Gal = target: GlcA(b1-6)Gal
How it was run: as §1

[10] = target: GlcNAc(a1-3)Gal(b1-4)GlcNAc
How it was run: as §1

[11] = target: GlcNAc(a1-4)Gal(b1-3)GlcNAc
How it was run: as §1

[12] = target: GlcNAc(a1-4)Gal(b1-4)GalNAc
How it was run: as §1

[13] = target: GlcNAc(a1-4)Gal(b1-4)GlcNAc
How it was run: as §1

[14] = target: GlcNAc(a1-4)Gal(b1-4)GlcNAc(b1-3)Gal(b1-4)Glc
How it was run: as §1

[15] = target: GlcNAc(a1-4)Gal(b1-4)GlcNAc(b1-3)Gal(b1-4)GlcNAc
How it was run: as §1

[16] = target: GlcNAc(a1-4)Gal(b1-4)GlcNAc(b1-3)Gal(b1-4)GlcNAc(b1-3)Gal(b1-4)GlcNAc
How it was run: as §1

B1: Beta-Defensin 3 (Homo sapiens), P81534 (peptide)
chain: GIINTLQKYYCRVRGGRCAVLSCLPKEEQIGKCSTRGRKCCRRKK
B1 was tested, and the “glycan array binding signal (z-score)” value [1] was -0.485, the “glycan array binding signal (z-score)” value [2] was -0.145 and the “glycan array binding signal (z-score)” value [3] was -0.537. For the same binder, the “glycan array binding signal (z-score)” value [4] was -0.302, the “glycan array binding signal (z-score)” value (Gal3S(b1-3)GalNAc) was 0.073 and the “glycan array binding signal (z-score)” value (Gal3S(b1-3)GlcNAc) was 0.98. The “glycan array binding signal (z-score)” value [5] was 0.072, the “glycan array binding signal (z-score)” value (Gal3S(b1-4)Glc) was 0.012 and the “glycan array binding signal (z-score)” value (Gal3S(b1-4)Glc6S) was 4.37. The “glycan array binding signal (z-score)” value (Gal3S(b1-4)GlcNAc) was 0.025, the “glycan array binding signal (z-score)” value (Gal3S(b1-4)GlcNAc6S) was 0.696 and the “glycan array binding signal (z-score)” value [6] was 0.062. The “glycan array binding signal (z-score)” value (Gal3S4S(b1-4)GlcNAc) was 4.31, the “glycan array binding signal (z-score)” value (Gal3S6S(b1-4)GlcNAc) was 0.35 and the “glycan array binding signal (z-score)” value (Gal3S6S(b1-4)GlcNAc6S) was 3.11. For the same binder, the “glycan array binding signal (z-score)” value (Gal4S(b1-4)GlcNAc) was 0.126, the “glycan array binding signal (z-score)” value (Gal4S6S(b1-4)GlcNAc) was 1.24 and the “glycan array binding signal (z-score)” value (Gal6S(b1-4)Glc) was 1.46. The “glycan array binding signal (z-score)” value (Gal6S(b1-4)Glc6S) was 2.6, the “glycan array binding signal (z-score)” value (Gal6S(b1-4)GlcNAc) was 0.19 and the “glycan array binding signal (z-score)” value (Gal6S(b1-4)GlcNAc6S) was -0.794. The “glycan array binding signal (z-score)” value (GalNAc(a1-3)Gal) was -0.428, the “glycan array binding signal (z-score)” value (GalNAc(a1-3)GalNAc) was -0.477 and the “glycan array binding signal (z-score)” value (GalNAc(b1-3)Gal) was -0.217. The “glycan array binding signal (z-score)” value [7] was -0.35, the “glycan array binding signal (z-score)” value [8] was 0.457 and the “glycan array binding signal (z-score)” value (GalNAc(b1-3)GalNAc) was -0.213. For the same binder, the “glycan array binding signal (z-score)” value (GalNAc(b1-4)GlcNAc) was -0.484, the “glycan array binding signal (z-score)” value [9] was -0.501 and the “glycan array binding signal (z-score)” value (Glc(a1-4)Glc) was 0.053. For the same binder, the “glycan array binding signal (z-score)” value (Glc(a1-6)Glc(a1-6)Glc) was -0.18, the “glycan array binding signal (z-score)” value (Glc(b1-4)Glc) was 0.443 and the “glycan array binding signal (z-score)” value (Glc(b1-6)Glc) was -0.231. The “glycan array binding signal (z-score)” value (GlcA(b1-3)Gal) was 1.72, the “glycan array binding signal (z-score)” value (GlcA(b1-3)GlcNAc) was 1.66 and the “glycan array binding signal (z-score)” value (GlcA(b1-6)Gal) was 2.3. The “glycan array binding signal (z-score)” value [10] was -0.579, the “glycan array binding signal (z-score)” value [11] was 1.21 and the “glycan array binding signal (z-score)” value [12] was 0.954. The “glycan array binding signal (z-score)” value [13] was -0.605, the “glycan array binding signal (z-score)” value [14] was 1.4 and the “glycan array binding signal (z-score)” value [15] was 2.42. The “glycan array binding signal (z-score)” value [16] was -0.574.
